This is one part of the list.
What was measured:
Experiment in all cases: glycan array binding signal (z-score within array); higher = stronger binding
Details in all cases: glycan notation: IUPAC condensed, linker removed
[1] = biological target: GlcNAc(b1-4)GlcNAc(b1-4)GlcNAc(b1-4)GlcNAc(b1-4)GlcNAc(b1-4)GlcNAc
In short: (§1)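 Glycan array data were curated from 3228 arrays in the Consortium for Functional Glycomics database and kept only where the protein sequence was available. Glycan names were converted to IUPAC-condensed notation, and columns mapping to the same glycan were averaged. The binding signal is a within-array Z-score, averaged across arrays of the same protein sequence at different concentrations or buffers and across linkers. Negative Z-scores can be read as non-binding.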

[2] = biological target: GlcNAc(b1-4)[GlcNAc(b1-6)]GalNAc
In short: as §1

[3] = biological target: GlcNAc(b1-6)Gal(b1-4)GlcNAc
In short: as §1

GlcNAc(b1-6)GalNAc = biological target: GlcNAc(b1-6)GalNAc
In short: as §1

[4] = biological target: GlcNAc6S(b1-3)Gal(b1-4)GlcNAc
In short: as §1

Kdn(a2-3)Gal(b1-3)GalNAc = biological target: Kdn(a2-3)Gal(b1-3)GalNAc
In short: as §1

Kdn(a2-3)Gal(b1-3)GlcNAc = biological target: Kdn(a2-3)Gal(b1-3)GlcNAc
In short: as §1

Kdn(a2-3)Gal(b1-4)Glc = biological target: Kdn(a2-3)Gal(b1-4)Glc
In short: as §1

Kdn(a2-3)Gal(b1-4)GlcNAc = biological target: Kdn(a2-3)Gal(b1-4)GlcNAc
In short: as §1

[5] = biological target: Kdn(a2-3)Gal(b1-4)[Fuc(a1-3)]GlcNAc
In short: as §1

Kdn(a2-6)Gal(b1-4)GlcNAc = biological target: Kdn(a2-6)Gal(b1-4)GlcNAc
In short: as §1

[6] = biological target: Man(a1-2)Man(a1-2)Man(a1-3)Man
In short: as §1

[7] = biological target: Man(a1-2)Man(a1-2)Man(a1-6)[Man(a1-3)]Man
In short: as §1

Man(a1-2)Man(a1-3)Man = biological target: Man(a1-2)Man(a1-3)Man
In short: as §1

[8] = biological target: Man(a1-2)Man(a1-3)[Man(a1-2)Man(a1-6)]Man
In short: as §1

[9] = biological target: Man(a1-2)Man(a1-3)[Man(a1-2)Man(a1-6)]Man(a1-6)[Man(a1-2)Man(a1-2)Man(a1-3)]Man
In short: as §1

[10] = biological target: Man(a1-2)Man(a1-3)[Man(a1-2)Man(a1-6)]Man(a1-6)[Man(a1-2)Man(a1-2)Man(a1-3)]Man(b1-4)GlcNAc(b1-4)GlcNAc
In short: as §1

[11] = biological target: Man(a1-2)Man(a1-3)[Man(a1-6)]Man(a1-6)[Man(a1-2)Man(a1-3)]Man(b1-4)GlcNAc(b1-4)GlcNAc
In short: as §1

[12] = biological target: Man(a1-2)Man(a1-6)[Man(a1-3)]Man(a1-6)[Man(a1-2)Man(a1-2)Man(a1-3)]Man
In short: as §1

[13] = biological target: Man(a1-2)Man(a1-6)[Man(a1-3)]Man(a1-6)[Man(a1-2)Man(a1-2)Man(a1-3)]Man(b1-4)GlcNAc(b1-4)GlcNAc
In short: as §1

Man(a1-3)[Man(a1-6)]Man = biological target: Man(a1-3)[Man(a1-6)]Man
In short: as §1

[14] = biological target: Man(a1-3)[Man(a1-6)]Man(a1-6)[Man(a1-2)Man(a1-3)]Man(b1-4)GlcNAc(b1-4)GlcNAc
In short: as §1

[15] = biological target: Man(a1-3)[Man(a1-6)]Man(a1-6)[Man(a1-3)]Man
In short: as §1

[16] = biological target: Man(a1-3)[Man(a1-6)]Man(a1-6)[Man(a1-3)]Man(b1-4)GlcNAc(b1-4)GlcNAc
In short: as §1

[17] = biological target: Man(a1-3)[Man(a1-6)]Man(b1-4)GlcNAc(b1-4)GlcNAc
In short: as §1

[18] = biological target: Man(a1-3)[Man(a1-6)]Man(b1-4)GlcNAc(b1-4)[Fuc(a1-6)]GlcNAc
In short: as §1

Man(a1-6)Man = biological target: Man(a1-6)Man
In short: as §1

Man(b1-4)GlcNAc = biological target: Man(b1-4)GlcNAc
In short: as §1

MurNAc(b1-4)GlcNAc = biological target: MurNAc(b1-4)GlcNAc
In short: as §1

Neu5Ac(a2-3)Gal = biological target: Neu5Ac(a2-3)Gal
In short: as §1

[19] = biological target: Neu5Ac(a2-3)Gal(b1-3)GalNAc
In short: as §1

[20] = biological target: Neu5Ac(a2-3)Gal(b1-3)GalNAc(b1-3)Gal(a1-4)Gal(b1-4)Glc
In short: as §1

[21] = biological target: Neu5Ac(a2-3)Gal(b1-3)GalNAc(b1-4)Gal(b1-4)Glc
In short: as §1

[22] = biological target: Neu5Ac(a2-3)Gal(b1-3)GalNAc(b1-4)[Neu5Ac(a2-3)]Gal(b1-4)Glc
In short: as §1

[23] = biological target: Neu5Ac(a2-3)Gal(b1-3)GalNAc(b1-4)[Neu5Ac(a2-8)Neu5Ac(a2-3)]Gal(b1-4)Glc
In short: as §1

[24] = biological target: Neu5Ac(a2-3)Gal(b1-3)GalNAc6S
In short: as §1

[25] = biological target: Neu5Ac(a2-3)Gal(b1-3)GlcNAc
In short: as §1

[26] = biological target: Neu5Ac(a2-3)Gal(b1-3)GlcNAc(b1-2)Man
In short: as §1

[27] = biological target: Neu5Ac(a2-3)Gal(b1-3)GlcNAc(b1-2)Man(a1-3)[GlcNAc(b1-4)][Neu5Ac(a2-3)Gal(b1-3)GlcNAc(b1-2)Man(a1-6)]Man(b1-4)GlcNAc(b1-4)GlcNAc
In short: as §1

[28] = biological target: Neu5Ac(a2-3)Gal(b1-3)GlcNAc(b1-2)Man(a1-3)[Neu5Ac(a2-3)Gal(b1-3)GlcNAc(b1-2)Man(a1-6)]Man(b1-4)GlcNAc(b1-4)GlcNAc
In short: as §1

[29] = biological target: Neu5Ac(a2-3)Gal(b1-3)GlcNAc(b1-2)[Neu5Ac(a2-3)Gal(b1-3)GlcNAc(b1-4)]Man(a1-6)[Neu5Ac(a2-3)Gal(b1-3)GlcNAc(b1-2)Man(a1-3)]Man(b1-4)GlcNAc(b1-4)GlcNAc
In short: as §1

[30] = biological target: Neu5Ac(a2-3)Gal(b1-3)GlcNAc(b1-3)Gal(b1-3)GlcNAc
In short: as §1

[31] = biological target: Neu5Ac(a2-3)Gal(b1-3)GlcNAc(b1-3)Gal(b1-4)GlcNAc
In short: as §1

[32] = biological target: Neu5Ac(a2-3)Gal(b1-3)GlcNAc(b1-3)GalNAc
In short: as §1

[33] = biological target: Neu5Ac(a2-3)Gal(b1-3)GlcNAc(b1-6)GalNAc
In short: as §1

B1: CBM40 CPF071 (Clostridium perfringens) (protein)
chain: MAHHHHHHVGTGSNDDDDKSPDPMLSSLGEYKDINLESSNASNITYDLEKYKNLDEGTIVVRFNSKDSKIQSLLGISNSKTKNGYFNFYVTNSRVGFELRNQKNEGNTQNGTENLVHMYKDVALNDGDNTVALKIEKNKGYKLFLNGKMIKEVKDTNTKFLNNIENLDSAFIGKTNRYGQSNEYNFKGNIGFMNIYNEPLGDDYLLSKTGETK
glycan array binding signal (z-score) [1]: -0.098
glycan array binding signal (z-score) [2]: 0.426
glycan array binding signal (z-score) [3]: -0.449
glycan array binding signal (z-score) (GlcNAc(b1-6)GalNAc): -0.334
glycan array binding signal (z-score) [4]: 0.527
glycan array binding signal (z-score) (Kdn(a2-3)Gal(b1-3)GalNAc): -0.605
glycan array binding signal (z-score) (Kdn(a2-3)Gal(b1-3)GlcNAc): -0.464
glycan array binding signal (z-score) (Kdn(a2-3)Gal(b1-4)Glc): -0.105
glycan array binding signal (z-score) (Kdn(a2-3)Gal(b1-4)GlcNAc): -0.456
glycan array binding signal (z-score) [5]: -0.267
glycan array binding signal (z-score) (Kdn(a2-6)Gal(b1-4)GlcNAc): -0.181
glycan array binding signal (z-score) [6]: -0.106
glycan array binding signal (z-score) [7]: -0.062
glycan array binding signal (z-score) (Man(a1-2)Man(a1-3)Man): 0.099
glycan array binding signal (z-score) [8]: -0.436
glycan array binding signal (z-score) [9]: -0.316
glycan array binding signal (z-score) [10]: -0.148
glycan array binding signal (z-score) [11]: -0.527
glycan array binding signal (z-score) [12]: -0.657
glycan array binding signal (z-score) [13]: -0.368
glycan array binding signal (z-score) (Man(a1-3)[Man(a1-6)]Man): -0.488
glycan array binding signal (z-score) [14]: -0.481
glycan array binding signal (z-score) [15]: -0.282
glycan array binding signal (z-score) [16]: 0.051
glycan array binding signal (z-score) [17]: -0.376
glycan array binding signal (z-score) [18]: 0.052
glycan array binding signal (z-score) (Man(a1-6)Man): -0.423
glycan array binding signal (z-score) (Man(b1-4)GlcNAc): -0.187
glycan array binding signal (z-score) (MurNAc(b1-4)GlcNAc): 0.15
glycan array binding signal (z-score) (Neu5Ac(a2-3)Gal): 0.159
glycan array binding signal (z-score) [19]: -0.019
glycan array binding signal (z-score) [20]: -0.106
glycan array binding signal (z-score) [21]: 0.298
glycan array binding signal (z-score) [22]: 0.789
glycan array binding signal (z-score) [23]: -0.469
glycan array binding signal (z-score) [24]: 1.2
glycan array binding signal (z-score) [25]: 0.994
glycan array binding signal (z-score) [26]: -0.238
glycan array binding signal (z-score) [27]: -0.468
glycan array binding signal (z-score) [28]: -0.391
glycan array binding signal (z-score) [29]: 2.77
glycan array binding signal (z-score) [30]: -0.044
glycan array binding signal (z-score) [31]: -0.328
glycan array binding signal (z-score) [32]: 0.544
glycan array binding signal (z-score) [33]: 0.533

Reference: the supplement of paper PMC8728848
